Data reported in paper PMC6919601, “Identification of Plasmodium dipeptidyl aminopeptidase allosteric inhibitors by high throughput screening” (PLoS ONE, 2019).
The whole screen tested about 110,000 compounds, of which about 230 (0.21%) showed an effect of 50% or more. The list shows a part of the results.

Each molecule was assayed against DPAP1 (Plasmodium falciparum, UniProt Q8IIJ9) (assay: primary screen, percent inhibition; read by cleavage of a fluorogenic dipeptide substrate; higher = more effect of the substance).
Chain of DPAP1 (Q8IIJ9 whole entry, looked up): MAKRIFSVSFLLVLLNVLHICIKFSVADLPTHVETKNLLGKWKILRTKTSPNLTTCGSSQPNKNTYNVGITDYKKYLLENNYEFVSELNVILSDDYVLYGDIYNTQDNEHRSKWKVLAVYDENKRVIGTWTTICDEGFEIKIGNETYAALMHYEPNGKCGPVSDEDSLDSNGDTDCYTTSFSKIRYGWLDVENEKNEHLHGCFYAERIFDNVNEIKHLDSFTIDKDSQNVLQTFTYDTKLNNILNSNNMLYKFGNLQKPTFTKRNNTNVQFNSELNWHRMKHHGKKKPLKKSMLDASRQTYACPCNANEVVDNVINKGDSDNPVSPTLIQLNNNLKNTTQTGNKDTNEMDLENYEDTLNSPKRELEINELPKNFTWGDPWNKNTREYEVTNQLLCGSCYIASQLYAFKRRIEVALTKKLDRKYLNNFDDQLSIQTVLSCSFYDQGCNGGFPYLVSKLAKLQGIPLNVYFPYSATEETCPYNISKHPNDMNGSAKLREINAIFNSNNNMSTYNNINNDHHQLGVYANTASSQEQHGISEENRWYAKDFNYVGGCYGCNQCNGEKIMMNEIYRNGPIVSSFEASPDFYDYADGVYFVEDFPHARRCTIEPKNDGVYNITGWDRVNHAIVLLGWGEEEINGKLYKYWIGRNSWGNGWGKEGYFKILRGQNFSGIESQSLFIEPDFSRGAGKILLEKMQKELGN
Parameters: species or system P. falciparum D10 trophozoite lysates; single well
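Also: 30 min substrate incubation versus DMSO and 10 µM JCP410 controls.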

Row | SMILES | % Inhibition @ 10 uM [%]
1 | CCOC(=O)N1CCC(N2CCc3cc(OC)c(OC)cc3C2c2cccc(Cl)c2)CC1 (stereo not drawn) | 2.22
2 | CC1(C)CC(NC(=O)N2c3ccccc3CCc3ccccc32)CC(C)(C)N1 | -2.07
3 | C=CCOc1ccc2ccccc2c1CNc1nc[nH]n1 | 0.343
4 | Nc1ccc(Oc2ccc(Cl)c3ccccc23)c(Cl)c1 | -2.15
5 | CC(=O)NCCNC(=O)C1CCC(CNc2nc(S)nc3ccccc23)CC1 (stereo not drawn) | 6.2
6 | Cc1ccc(Oc2cccc([N+](=O)[O-])c2)cc1C | 2.94
7 | CN(C1CCCCC1)S(=O)(=O)c1ccc(C(=O)Nc2nc(-c3ccccn3)cs2)cc1 | -1.4
8 | Cc1ccccc1Oc1ccc(S(=O)(=O)NCc2ccccn2)cc1 | -11.5
9 | COc1ccccc1/C=C/c1nc(C#N)c(N2CCC(C(N)=O)CC2)o1 | 4.13
10 | COC(=O)c1ccc(NC(=O)c2cc(Cl)ccc2Cl)cc1[N+](=O)[O-] | 2.55
11 | Cn1c(=O)c2c(nc(SCc3nn[nH]n3)n2Cc2ccccc2)n(C)c1=O | -1.92
12 | COc1cc(/C=C2/SC(=O)N(CC(=O)N3CCN(c4ccccc4)CC3)C2=O)ccc1OC(C)C | -1.89
13 | COc1cc(/C=C2N=C(/C=C/c3ccc(C)cc3)OC/2=O)cc(OC)c1OC | -1.12
14 | COc1cccc(C(O)Cc2ccccc2)c1 (stereo not drawn) | 2.01
15 | CCCN1CCC(N(CCc2ccccc2)Cc2ccccc2)CC1 | -1.21
16 | O=CN1CCN(Cc2cccc(Cl)c2)CC1 | 2.7
17 | Sc1nnc(CN2CCSCC2)n1-c1cccc(Cl)c1 | 3.61
18 | O=C(c1cc2c(=O)oc3ccccc3c2s1)N1CCN(c2ccccn2)CC1 | 3.49
19 | CCSCCOC(=O)C1=C(C)N(C)C(=O)NC1c1cc2c(cc1Br)OCO2 (stereo not drawn) | 4.1
20 | Cn1c2c(c(=O)n(C)c1=O)CN(Cc1cccnc1)CN2 | -1.52
21 | CCOC(=O)c1cc2c(=O)n3ccccc3nc2n(CC(C)C)/c1=N/C(C)=O | 0.457

Row | SMILES | % Inhibition @ 10 uM [%]
22 | CC(C)N(Cc1nc(-c2ccc(Cl)cc2)no1)C(=O)CCCN1C(=O)c2ccccc2C1=O | -1.24
23 | O=C(O)Cn1cc(C(=O)c2ccco2)c2ccccc21 | -8.95
24 | C=CCSc1nc(O)c2c(n1)NC(=O)CC2c1cccc(O)c1 (stereo not drawn) | 0.596
25 | Cc1ccc(C)c2nc(O)c(CCNS(=O)(=O)c3ccc(Br)cc3)cc12 | -4.16
26 | Cc1cc(C)n(-c2nncn2/N=C/c2ccc(Cl)cc2Cl)n1 | -1.24
27 | O=[N+]([O-])c1ccc(OCCCCN2CCCCC2)cc1 | 3
28 | Cc1ccc2c(=O)cc(C(=O)NCc3ccccc3)oc2c1C | -1.47
29 | CCC1=C(c2ccc(C)cc2)S(=O)(=O)N=C1N1CCC(C(=O)N2CCCCCC2)CC1 | -2.66
30 | Cc1ccc(NC(=O)C(c2ccccc2)N2Cc3ccccc3C2=O)nc1 (stereo not drawn) | 1.13
31 | Cc1ccc(-n2c(SCC(=O)NCC3CCCO3)nc3nnc(C)c-3c2N)cc1Cl (stereo not drawn) | -2.17
32 | CCOC(=O)c1cnc(SC)nc1N | 1.22
33 | Cc1cc(C)cc(NC(=O)c2ccc([N+](=O)[O-])cc2)c1 | 1.83
34 | Cc1cc(C(=O)NC(C)CCc2ccccc2)n(-c2ccccc2)n1 (stereo not drawn) | 2.35
35 | COc1cc(/C=C(\C#N)c2nc(O)c3ccccc3n2)cc(OC)c1OC | -1.1
36 | CCOC(=O)c1ccc(NC(=O)COc2ccccc2)cc1 | -5.28
37 | O=C1NC(=O)C(=Cc2cn(CC(=O)N3CCOCC3)c3ccccc23)C(=O)N1 | -5.01
38 | CCC(CC)C(=O)Nc1ccc(C)c(O)c1 | 4.31
39 | Cc1ccc(Cl)cc1-n1ncc2c(N(CCO)Cc3ccccc3)ncnc21 | -1.27
40 | O=C(O)C(c1ccc(F)cc1)N1Cc2ccccc2C1=O (stereo not drawn) | 2.39
41 | Cc1cccc(-n2c(SCc3cc(=O)n4c(C)cccc4n3)nc3nncc-3c2O)c1 | -3.94
42 | N#CC1=C(N)Oc2[nH]nc(-c3ccccc3)c2C1c1ccc(Br)cc1 (stereo not drawn) | 0.121

Row | SMILES | % Inhibition @ 10 uM [%]
43 | CCOC(=O)N1CCN(C(=O)C2CCCN(C(=O)c3cc4sccc4n3C)C2)CC1 (stereo not drawn) | -6.24
44 | CCN(CC)Cc1c(O)ccc2occ(C(=O)c3ccccc3)c12 | 3.82
45 | CCN1CN(Cc2ccccc2)CNC1=S | -6.87
46 | COc1ccc(C(=O)CCC(=O)NCCSCc2ccccc2)cc1 | 0.238
47 | O=C(Nc1ccc(-c2ccccc2)cc1)C1CC1c1ccccc1 (stereo not drawn) | 0.878
48 | O=C(O)c1cn(-c2ccc(F)cc2)c2cc(Cl)c(F)cc2c1=O | 4.03
49 | CC(CN(C)C)C(=O)c1ccccc1 (stereo not drawn) | -2.77
50 | CN(C)c1ccc(NC(=O)c2ccc(C(C)(C)C)cc2)cc1 | 0.205
51 | O=C(Nc1ccccc1F)c1cc(-c2ccco2)nc2ccccc12 | 8
52 | O=C(NC(Cc1c(F)cccc1F)C(=O)Nc1nc2ccccc2[nH]1)c1ccc(-c2ccccc2Cl)cc1 (stereo not drawn) | -3.48
53 | CC(C)NC(=O)c1nnc(Cc2c(F)cccc2Cl)o1 | 2.5
54 | Cc1ccc(CNC(=O)CCCn2nc(C)c3sc4ccccc4c3c2=O)cc1 | -1.49
55 | CC(C)C(NS(=O)(=O)c1cccc2nsnc12)C(=O)NCCC1=CCCCC1 (stereo not drawn) | 2.93
56 | CO/C(O)=C1\C(C)=NC(=S)NC1c1cccc(OC)c1 (stereo not drawn) | -1.66
57 | COc1ccc(S(=O)(=O)N(CC(=O)Nc2ccc3c(c2)OCCO3)c2ccccc2)cc1OC | -3.49
58 | CCCN(CCC)CCNC(=O)c1cc2c(s1)-c1ccc(Cl)cc1S(=O)(=O)C2 | -0.72
59 | CCOC(=O)NC1(C(F)(F)F)C(=O)N(Cc2ccccn2)C2=C1C(=O)CC(C)(C)C2 (stereo not drawn) | -0.703
60 | CC1(C)CC(=O)C2=C(C1)OC(=O)CC2c1ccccc1C(F)(F)F (stereo not drawn) | -2.19
61 | COc1cc(C2C3=C(CC(C)(C)CC3=O)N(C)C3=C2C(=O)CC(C)(C)C3)ccc1O | -1.6
62 | COc1cc2ccccc2cc1C(=O)NCC12CC3CC(CC(C3)C1)C2 | 2.4
63 | Cc1ccc(NC2CC(=O)N(c3ccccc3)C2=O)cc1 (stereo not drawn) | 4.99
